In the supplement of paper PMC10126150:
Values marked as one replicate rest on one cluster of the flow cell; about a third of the high ones do not repeat.

System: ATP
Assay: switch fluorescence ratio, 500 uM ATP over buffer (Cy3 cluster intensity, sum of 5 cycles each) (fold (ratio)); higher = stronger signal-on switching upon ATP binding; sequences stand for … in TCGTCGGCAGCGTCAGATGTGTATAAGAGACAGTTTTTTTTTTTTTTTTTTTTTTTTT…TC
Details: aptamer strand: ATP DNA aptamer (quencher-CACCTGGGGGAGTATTGCGGAGGAAGG + anchor), 100 nM annealed; ATP concentration: 500 uM; one replicate
How it was run: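 Imaging in selection buffer was followed by imaging after 15 min with 500 uM ATP at 22 °C, for Cy3-labelled switching-strand clusters annealed to 100 nM quencher-labelled ATP aptamer on a modified Illumina MiSeq flow-cell. Five of these buffer/ATP cycles ran, separated by NaOH stripping and re-annealing. The fluorescence ratio per cluster is summed target-cycle over summed buffer-cycle Cy3 intensity, averaged per switch-domain sequence; clusters outside 100-1000 RFU were removed.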
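Also: ATP exposure 15 min at 22 °C before imaging.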

Row | Sequence | switch fluorescence ratio
1 | AGTTAATGTA | 0.983
2 | TACCTACGTG | 1.45
3 | GGGACAGCGC | 1.04
4 | TAACTCCGAA | 1.8
5 | CAATTGGGAG | 0.938
6 | GGTCTCAGCG | 1.04
7 | GTGGCATTAT | 1.07
8 | TATAAAGCTT | 1.06
9 | GATTTTTGCG | 0.941
10 | TAGTTGGCCT | 0.996
11 | TCCTGGGAAA | 1.03
12 | TTTTAAGATC | 0.968
13 | GGTTGAGAGT | 1.04
14 | GTGATAACCT | 1.43
15 | TTTTCTGGTG | 1.18
16 | GTGCTTGCAG | 0.988
17 | CTCGTACTTC | 1.07
18 | ACTAAAGCAC | 1.22
19 | TGTAATTAAA | 0.978
20 | TGGGTCGCCA | 1.01
21 | AGCCTGTAGC | 1.03
22 | CGGATATCTT | 1.02
23 | AAATAGGTTC | 1.09
24 | AGGGCCCCCG | 1.03
25 | CGGCCAAGCT | 1.05
26 | TGATACTGGA | 0.976

Row | Sequence | switch fluorescence ratio
27 | GTGTGAGTG | 1.05
28 | TCTAAACATA | 1
29 | GGGTCATTCG | 1.01
30 | TTATGAACCC | 1.05
31 | TATGCGTCTC | 0.996
32 | GGCTTATACC | 1.05
33 | AGGAAAAATT | 1.02
34 | AACATACCTT | 1.31
35 | GAATAAGTGG | 0.981
36 | GGCAAAGTCT | 1.02
37 | AATGGGAGCT | 1
38 | TCTGTTGTCA | 0.97
39 | GTTGATAAAC | 0.986
40 | GCGGGCTGGG | 1.01
41 | CATCTTCACC | 0.995
42 | TATAACTCGA | 0.991
43 | GGTGTGAACG | 1.02
44 | TTGAGCCATC | 1.02
45 | CTGGTGGAGA | 0.979
46 | GAAACCGCCG | 1.13
47 | ATGCATGAAC | 1.02
48 | TTAATATGCC | 0.945
49 | AGCGAAATAA | 1.06
50 | TGCCTGTGAG | 0.992
51 | GATGTGGTAC | 1.3
52 | TGCTTGGTCA | 0.978

Row | Sequence | switch fluorescence ratio
53 | TTACGGTAGA | 1.01
54 | TACAAACACA | 1.02
55 | AAGATATTAA | 1
56 | GGGACTCGCG | 0.982
57 | GCGAGATCCA | 1.02
58 | AGGAAAATCA | 0.992
59 | CGCGCTGGTC | 1.05
60 | GATATCTAAC | 1.03
61 | AAGCCCTTGG | 1.13
62 | TGCGCCGGTT | 1.01
63 | ATCATTCTAT | 0.987
64 | GGACAGGAGC | 0.971
65 | TACGTGTTCG | 1.02
66 | TTCATTGCAG | 1.05
67 | TATCTCTCAG | 0.989
68 | ACGGAGTATG | 0.983
69 | ATAGATTTGT | 1
70 | TAAGCACACC | 1.28
71 | ATTTGGGCAG | 1.01
72 | GCCCTTCGTT | 0.976
73 | GGTGTATTGC | 1.06
74 | TATAATAGAT | 0.986
75 | CCCAGCCCCG | 1.01
76 | ACTCTTGGG | 0.99
77 | ACTAAAGAA | 1.02
78 | CGAGCAGAAA | 1.07

Row | Sequence | switch fluorescence ratio
79 | GCTATTTTAT | 0.954
80 | TGTCAAT | 1.01
81 | CGACATTGGG | 1.11
82 | AAGTGAGCTT | 1.03
83 | CAGGTATATC | 0.996
84 | GGACGAC | 1.02
85 | GGTATGACTC | 0.904
86 | TTGACACCTG | 1.02
87 | CTCGTTCATA | 0.984
88 | ATAGTGTAGA | 0.964
89 | TCTAAAGAAT | 0.982
90 | GGGCGTCAA | 1.03
91 | CGGAAGTATT | 0.979
92 | GTATTGAGTT | 0.999
93 | TCTAGTGGTC | 1.06
94 | GTCAGGGGCA | 1.01
95 | ATTACAACGC | 1.14
96 | TTCGTCCTAT | 0.978
97 | ACGATAAATC | 1.08
98 | TATTAGACGG | 1.01
99 | AAAAACGGTA | 1.13
100 | TTTGGGAACC | 1.02
101 | AAATTTCGAT | 1.01
102 | GGGGCCTAGT | 0.999
103 | TACTGTTT | 0.984
104 | TATAGGGCCC | 1.02

Row | Sequence | switch fluorescence ratio
105 | TGCGGGTCA | 0.977
106 | CCGAGTTTAT | 1.34
107 | GAACAAGAAG | 0.961
108 | AGGGGCTCTG | 1.03
109 | GTAGAAGGTG | 1.35
110 | AATACAATAT | 1.05
111 | CGATTAACAG | 0.98
112 | CACGTACGCT | 1.59
113 | TAGAAATATT | 1.03
114 | ACATGTCTCC | 1.11
115 | ACAAGTGGGA | 0.998
116 | TCGTGCGATG | 1.02
117 | ATGCTATATT | 1.01
118 | GATGGGTTG | 1.02
119 | TAGGCCTGAA | 1
120 | GACAACTATC | 1.05
121 | ATCTCAGCGC | 1.01
122 | TTAATTCTCG | 1.03
123 | TAGGTGTATT | 1.05
124 | GTCCTCACAT | 1.06
125 | GGGGCGAAGA | 0.983
126 | GTTGCCAGGT | 1.03
127 | GCTCGATGGT | 1.02
128 | GTAAAGTTAA | 0.938
129 | TTCTCTGCCA | 1.04
130 | CGCTACAGAG | 1.08

Row | Sequence | switch fluorescence ratio
131 | TGCAGTTGCC | 1.05
132 | GTACTTATGG | 1.01
133 | AATGTATCTC | 0.96
134 | CCACATAGTA | 1
135 | TGAGTCGT | 0.994
136 | GAGGGTTATC | 0.997
137 | CTATCTTAAG | 0.992
138 | ATGACAGGAG | 1.03
139 | TCAATCAGGG | 1.03
140 | AGACGTAAAC | 1.58
141 | CGCATTGGG | 1.07
142 | CAGTCCCGGA | 1.02
143 | CAAGGACGCT | 1.04
144 | AGATGGTGTA | 0.967
145 | ATGTATTG | 0.981
146 | AGGGGGACCT | 1.01
147 | AGTAGGCCGA | 0.972
148 | ACTCCAGACA | 1.2
149 | TTTATTTAAA | 1.03
150 | GCTTAAAGGA | 0.967
151 | CTGGACAGAT | 1.02
152 | ATAGTTCGTA | 0.989
153 | AGCTCTTTGA | 0.997
